According to the antibiotic and cytotoxicity screens of Wong et al. (2023):
This is one part of the list.

Legend:
[1] = test system: HSkMC (human skeletal muscle cells); test: cytotoxicity call (relative viability < 0.9); conditions: 10 µM
[2] = test system: HepG2; test: cytotoxicity call (relative viability < 0.9); conditions: 10 µM
[3] = test system: S. aureus RN4220; test: growth inhibition call (relative growth <= 0.2); conditions: 50 µM

Row | Compound | cytotoxicity call [1] | cytotoxicity call [2] | growth inhibition call [3]
1 | C[C@H]1CN([C@@H](C)CO)C(=O)c2cccc(NC(=O)CCCCCC(=O)Nc3ccccc3N)c2O[C@@H]1CN(C)Cc1ccc(Cl)c(Cl)c1 | inactive | active | inactive
2 | C[C@@H]1CCCCO[C@@H](CN(C)C(=O)NC2CCCCC2)[C@@H](C)CN([C@@H](C)CO)C(=O)c2cc(NC(=O)c3ccccc3)ccc2O1 | inactive | inactive | inactive
3 | Cc1noc(C)c1S(=O)(=O)N(C)C[C@@H]1Oc2ccc(NC(=O)NC(C)C)cc2CC(=O)N([C@H](C)CO)C[C@H]1C | inactive | inactive | inactive
4 | C[C@H](CO)N1C[C@H](C)[C@@H](CN(C)S(=O)(=O)c2ccccc2)Oc2c(NC(=O)c3ccncc3)cccc2C1=O | inactive | inactive | inactive
5 | Cc1ccc(S(=O)(=O)N2C[C@@H](O)COC[C@H]3O[C@H](CC(=O)NCc4cccc(C(F)(F)F)c4)CC[C@@H]32)cc1 | inactive | inactive | inactive
6 | COCCNC(=O)C[C@H]1CC[C@H]2[C@H](COc3ccc(NC(=O)Nc4cccc(F)c4)cc3C(=O)N2C)O1 | inactive | inactive | inactive
7 | Cn1ccc(=O)[nH]c1=O | inactive | inactive | inactive
8 | Cn1ccnc1C(=O)NCc1cnc2n1CCNCC2 | inactive | inactive | inactive
9 | Cc1ccccc1-c1ccc2c(c1)O[C@H](CN(C)C(=O)Nc1ccc(C(F)(F)F)cc1)[C@H](C)CN([C@@H](C)CO)S2(=O)=O | inactive | active | inactive
10 | C[C@@H]1CN([C@H](C)CO)C(=O)Cc2cc(NS(C)(=O)=O)ccc2O[C@@H]1CN(C)Cc1ccc(C(F)(F)F)cc1 | inactive | inactive | inactive
